# Reference: the supplement of paper PMC8728848
# The list shows a part of the results.
# B1: Mincle (Homo sapiens), Q9ULY5 (protein)
# chain: MNSSKSSETQCTERGCFSSQMFLWTVAGIPILFLSACFITRCVVTFRIFQTCDEKKFQLPENFTELSCYNYGSGSVKNCCPLNWEYFQSSCYFFSTDTISWALSLKNCSAMGAHLVVINSQEEQEFLSYKKPKMREFFIGLSDQVVEGQWQWVDGTPLTKSLSFWDVGEPNNIATLEDCATMRDSSNPRQNWNDVTCFLNYFRICEMVGINPLNKGKSL
# How the values were obtained:
# Experiment in all cases: glycan array binding signal (z-score within array); higher = stronger binding
# Conditions in all cases: glycan notation: IUPAC condensed, linker removed
# Fuc(a1-2)Gal = target: Fuc(a1-2)Gal
# Method in brief: (§1)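 The binding signal is a Z-score computed within each array and averaged over linkers. Arrays of the same protein sequence at different concentrations or buffers were also averaged together. Data originate from 3228 arrays in the Consortium for Functional Glycomics database, kept only where the protein sequence was available.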
# Fuc(a1-2)Gal(b1-3)GalNAc = target: Fuc(a1-2)Gal(b1-3)GalNAc
# Method in brief: as §1
# [1] = target: Fuc(a1-2)Gal(b1-3)GalNAc(a1-3)[Fuc(a1-2)]Gal(b1-4)Glc
# Method in brief: as §1
# [2] = target: Fuc(a1-2)Gal(b1-3)GalNAc(a1-3)[Fuc(a1-2)]Gal(b1-4)GlcNAc
# Method in brief: as §1
# [3] = target: Fuc(a1-2)Gal(b1-3)GalNAc(b1-3)Gal
# Method in brief: as §1
# [4] = target: Fuc(a1-2)Gal(b1-3)GalNAc(b1-3)Gal(a1-4)Gal(b1-4)Glc
# Method in brief: as §1
# [5] = target: Fuc(a1-2)Gal(b1-3)GalNAc(b1-4)[Neu5Ac(a2-3)]Gal(b1-4)Glc
# Method in brief: as §1
# Fuc(a1-2)Gal(b1-3)GlcNAc = target: Fuc(a1-2)Gal(b1-3)GlcNAc
# Method in brief: as §1
# [6] = target: Fuc(a1-2)Gal(b1-3)GlcNAc(b1-2)Man(a1-3)[Fuc(a1-2)Gal(b1-3)GlcNAc(b1-2)Man(a1-6)]Man(b1-4)GlcNAc(b1-4)GlcNAc
# Method in brief: as §1
# [7] = target: Fuc(a1-2)Gal(b1-3)GlcNAc(b1-3)Gal(b1-4)Glc
# Method in brief: as §1
# [8] = target: Fuc(a1-2)Gal(b1-3)GlcNAc(b1-3)[Fuc(a1-3)[Gal(b1-4)]GlcNAc(b1-6)]Gal(b1-4)Glc
# Method in brief: as §1
# [9] = target: Fuc(a1-2)Gal(b1-3)[Fuc(a1-4)]GlcNAc
# Method in brief: as §1
# [10] = target: Fuc(a1-2)Gal(b1-3)[Fuc(a1-4)]GlcNAc(b1-2)Man(a1-3)[Fuc(a1-2)Gal(b1-3)[Fuc(a1-4)]GlcNAc(b1-2)Man(a1-6)]Man(b1-4)GlcNAc(b1-4)GlcNAc
# Method in brief: as §1
# [11] = target: Fuc(a1-2)Gal(b1-3)[Fuc(a1-4)]GlcNAc(b1-3)[Fuc(a1-3)[Gal(b1-4)]GlcNAc(b1-6)]Gal(b1-4)Glc
# Method in brief: as §1
# [12] = target: Fuc(a1-2)Gal(b1-3)[Fuc(a1-4)]GlcNAc(b1-3)[Gal(b1-4)GlcNAc(b1-6)]Gal(b1-4)Glc
# Method in brief: as §1
# Fuc(a1-2)Gal(b1-4)Glc = target: Fuc(a1-2)Gal(b1-4)Glc
# Method in brief: as §1
# Fuc(a1-2)Gal(b1-4)Glc6S = target: Fuc(a1-2)Gal(b1-4)Glc6S
# Method in brief: as §1
# Fuc(a1-2)Gal(b1-4)GlcNAc = target: Fuc(a1-2)Gal(b1-4)GlcNAc
# Method in brief: as §1
# [13] = target: Fuc(a1-2)Gal(b1-4)GlcNAc(b1-2)Man(a1-3)[Fuc(a1-2)Gal(b1-4)GlcNAc(b1-2)Man(a1-6)]Man(b1-4)GlcNAc(b1-4)GlcNAc
# Method in brief: as §1
# [14] = target: Fuc(a1-2)Gal(b1-4)GlcNAc(b1-3)Gal(b1-4)GlcNAc
# Method in brief: as §1
# [15] = target: Fuc(a1-2)Gal(b1-4)GlcNAc(b1-3)Gal(b1-4)GlcNAc(b1-3)Gal(b1-4)GlcNAc
# Method in brief: as §1
# [16] = target: Fuc(a1-2)Gal(b1-4)GlcNAc(b1-3)GalNAc
# Method in brief: as §1
binder,measurement,setting,value
B1,glycan array binding signal (z-score),Fuc(a1-2)Gal,0
same,glycan array binding signal (z-score),Fuc(a1-2)Gal(b1-3)GalNAc,-0.399
same,glycan array binding signal (z-score),[1],0.081
same,glycan array binding signal (z-score),[2],0.077
same,glycan array binding signal (z-score),[3],-0.282
same,glycan array binding signal (z-score),[4],-0.28
same,glycan array binding signal (z-score),[5],-0.174
same,glycan array binding signal (z-score),Fuc(a1-2)Gal(b1-3)GlcNAc,-0.177
same,glycan array binding signal (z-score),[6],0.656
same,glycan array binding signal (z-score),[7],-0.221
same,glycan array binding signal (z-score),[8],0.093
same,glycan array binding signal (z-score),[9],-0.224
same,glycan array binding signal (z-score),[10],1.79
same,glycan array binding signal (z-score),[11],0.347
same,glycan array binding signal (z-score),[12],-0.23
same,glycan array binding signal (z-score),Fuc(a1-2)Gal(b1-4)Glc,-0.358
same,glycan array binding signal (z-score),Fuc(a1-2)Gal(b1-4)Glc6S,0.195
same,glycan array binding signal (z-score),Fuc(a1-2)Gal(b1-4)GlcNAc,-0.329
same,glycan array binding signal (z-score),[13],1.64
same,glycan array binding signal (z-score),[14],-0.419
same,glycan array binding signal (z-score),[15],0.144
same,glycan array binding signal (z-score),[16],-0.361
